Assay results: the supplement of paper PMC12423691
The list shows a part of the results. Binding of human transcription factors and regulators to the viral nucleoprotein by AlphaScreen, crude cell-free proteins, amounts not normalised, one pass. Fold of the Venus control; higher = more signal. No active / inactive call. Single-pass screen; sequences are the whole Swiss-Prot entries looked up by name.

B1: ERF, P50548 (protein)
chain: MKTPADTGFAFPDWAYKPESSPGSRQIQLWHFILELLRKEEYQGVIAWQGDYGEFVIKDPDEVARLWGVRKCKPQMNYDKLSRALRYYYNKRILHKTKGKRFTYKFNFNKLVLVNYPFIDVGLAGGAVPQSAPPVPSGGSHFRFPPSTPSEVLSPTEDPRSPPACSSSSSSLFSAVVARRLGRGSVSDCSDGTSELEEPLGEDPRARPPGPPDLGAFRGPPLARLPHDPGVFRVYPRPRGGPEPLSPFPVSPLAGPGSLLPPQLSPALPMTPTHLAYTPSPTLSPMYPSGGGGPSGSGGGSHFSFSPEDMKRYLQAHTQSVYNYHLSPRAFLHYPGLVVPQPQRPDKCPLPPMAPETPPVPSSASSSSSSSSSPFKFKLQPPPLGRRQRAAGEKAVAGADKSGGSAGGLAEGAGALAPPPPPPQIKVEPISEGESEEVEVTDISDEDEEDGEVFKTPRAPPAPPKPEPGEAPGASQCMPLKLRFKRRWSEDCRLEGGGGPAGGFEDEGEDKKVRGEGPGEAGGPLTPRRVSSDLQHATAQLSLEHRDS
B2: DLX2, Q07687 (protein)
chain: MTGVFDSLVADMHSTQIAASSTYHQHQQPPSGGGAGPGGNSSSSSSLHKPQESPTLPVSTATDSSYYTNQQHPAGGGGGGGSPYAHMGSYQYQASGLNNVPYSAKSSYDLGYTAAYTSYAPYGTSSSPANNEPEKEDLEPEIRIVNGKPKKVRKPRTIYSSFQLAALQRRFQKTQYLALPERAELAASLGLTQTQVKIWFQNRRSKFKKMWKSGEIPSEQHPGASASPPCASPPVSAPASWDFGVPQRMAGGGGPGSGGSGAGSSGSSPSSAASAFLGNYPWYHQTSGSASHLQATAPLLHPTQTPQPHHHHHHHGGGGAPVSAGTIF
B3: CBFB, Q13951 (protein)
chain: MPRVVPDQRSKFENEEFFRKLSRECEIKYTGFRDRPHEERQARFQNACRDGRSEIAFVATGTNLSLQFFPASWQGEQRQTPSREYVDLEREAGKVYLKAPMILNGVCVIWKGWIDLQRLDGMGCLEFDEERAQQEDALAQQAFEEARRRTREFEDRDRSHREEMEVRVSQLLAVTGKKTTRP
B4: FOSB, P53539 (protein)
chain: MFQAFPGDYDSGSRCSSSPSAESQYLSSVDSFGSPPTAAASQECAGLGEMPGSFVPTVTAITTSQDLQWLVQPTLISSMAQSQGQPLASQPPVVDPYDMPGTSYSTPGMSGYSSGGASGSGGPSTSGTTSGPGPARPARARPRRPREETLTPEEEEKRRVRRERNKLAAAKCRNRRRELTDRLQAETDQLEEEKAELESEIAELQKEKERLEFVLVAHKPGCKIPYEEGPGPGPLAEVRDLPGSAPAKEDGFSWLLPPPPPPPLPFQTSQDAPPNLTASLFTHSEVQVLGDPFPVVNPSYTSSFVLTCPEVSAFAGAQRTSGSDQPSDPLNSPSLLAL
B5: JDP2, Q8WYK2 (protein)
chain: MMPGQIPDPSVTTGSLPGLGPLTGLPSSALTVEELKYADIRNLGAMIAPLHFLEVKLGKRPQPVKSELDEEEERRKRRREKNKVAAARCRNKKKERTEFLQRESERLELMNAELKTQIEELKQERQQLILMLNRHRPTCIVRTDSVKTPESEGNPLLEQLEKK
B6: STAT6, P42226 (protein)
chain: MSLWGLVSKMPPEKVQRLYVDFPQHLRHLLGDWLESQPWEFLVGSDAFCCNLASALLSDTVQHLQASVGEQGEGSTILQHISTLESIYQRDPLKLVATFRQILQGEKKAVMEQFRHLPMPFHWKQEELKFKTGLRRLQHRVGEIHLLREALQKGAEAGQVSLHSLIETPANGTGPSEALAMLLQETTGELEAAKALVLKRIQIWKRQQQLAGNGAPFEESLAPLQERCESLVDIYSQLQQEVGAAGGELEPKTRASLTGRLDEVLRTLVTSCFLVEKQPPQVLKTQTKFQAGVRFLLGLRFLGAPAKPPLVRADMVTEKQARELSVPQGPGAGAESTGEIINNTVPLENSIPGNCCSALFKNLLLKKIKRCERKGTESVTEEKCAVLFSASFTLGPGKLPIQLQALSLPLVVIVHGNQDNNAKATILWDNAFSEMDRVPFVVAERVPWEKMCETLNLKFMAEVGTNRGLLPEHFLFLAQKIFNDNSLSMEAFQHRSVSWSQFNKEILLGRGFTFWQWFDGVLDLTKRCLRSYWSDRLIIGFISKQYVTSLLLNEPDGTFLLRFSDSEIGGITIAHVIRGQDGSPQIENIQPFSAKDLSIRSLGDRIRDLAQLKNLYPKKPKDEAFRSHYKPEQMGKDGRGYVPATIKMTVERDQPLPTPELQMPTMVPSYDLGMAPDSSMSMQLGPDMVPQVYPPHSHSIPPYQGLSPEESVNVLSAFQEPHLQMPPSLGQMSLPFDQPHPQGLLPCQPQEHAVSSPDPLLCSDVTMVEDSCLSQPVTAFPQGTWIGEDIFPPLLPPTEQDLTKLLLEGQGESGGGSLGAQPLLQPSHYGQSGISMSHMDLRANPSW
B7: ELK1, P19419 (protein)
chain: MDPSVTLWQFLLQLLREQGNGHIISWTSRDGGEFKLVDAEEVARLWGLRKNKTNMNYDKLSRALRYYYDKNIIRKVSGQKFVYKFVSYPEVAGCSTEDCPPQPEVSVTSTMPNVAPAAIHAAPGDTVSGKPGTPKGAGMAGPGGLARSSRNEYMRSGLYSTFTIQSLQPQPPPHPRPAVVLPSAAPAGAAAPPSGSRSTSPSPLEACLEAEEAGLPLQVILTPPEAPNLKSEELNVEPGLGRALPPEVKVEGPKEELEVAGERGFVPETTKAEPEVPPQEGVPARLPAVVMDTAGQAGGHAASSPEISQPQKGRKPRDLELPLSPSLLGGPGPERTPGSGSGSGLQAPGPALTPSLLPTHTLTPVLLTPSSLPPSIHFWSTLSPIAPRSPAKLSFQFPSSGSAQVHIPSISVDGLSTPVVLSPGPQKP
B8: PRKD2, Q9BZL6 (protein)
chain: MATAPSYPAGLPGSPGPGSPPPPGGLELQSPPPLLPQIPAPGSGVSFHIQIGLTREFVLLPAASELAHVKQLACSIVDQKFPECGFYGLYDKILLFKHDPTSANLLQLVRSSGDIQEGDLVEVVLSASATFEDFQIRPHALTVHSYRAPAFCDHCGEMLFGLVRQGLKCDGCGLNYHKRCAFSIPNNCSGARKRRLSSTSLASGHSVRLGTSESLPCTAEELSRSTTELLPRRPPSSSSSSSASSYTGRPIELDKMLLSKVKVPHTFLIHSYTRPTVCQACKKLLKGLFRQGLQCKDCKFNCHKRCATRVPNDCLGEALINGDVPMEEATDFSEADKSALMDESEDSGVIPGSHSENALHASEEEEGEGGKAQSSLGYIPLMRVVQSVRHTTRKSSTTLREGWVVHYSNKDTLRKRHYWRLDCKCITLFQNNTTNRYYKEIPLSEILTVESAQNFSLVPPGTNPHCFEIVTANATYFVGEMPGGTPGGPSGQGAEAARGWETAIRQALMPVILQDAPSAPGHAPHRQASLSISVSNSQIQENVDIATVYQIFPDEVLGSGQFGVVYGGKHRKTGRDVAVKVIDKLRFPTKQESQLRNEVAILQSLRHPGIVNLECMFETPEKVFVVMEKLHGDMLEMILSSEKGRLPERLTKFLITQILVALRHLHFKNIVHCDLKPENVLLASADPFPQVKLCDFGFARIIGEKSFRRSVVGTPAYLAPEVLLNQGYNRSLDMWSVGVIMYVSLSGTFPFNEDEDINDQIQNAAFMYPASPWSHISAGAIDLINNLLQVKMRKRYSVDKSLSHPWLQEYQTWLDLRELEGKMGERYITHESDDARWEQFAAEHPLPGSGLPTDRDLGGACPPQDHDMQGLAERISVL
B9: HOMEZ, Q8IX15 (protein)
chain: MVRGWEPPPGLDCAISEGHKSEGTMPPNKEASGLSSSPAGLICLPPISEELQLVWTQAAQTSELDSNEHLLKTFSYFPYPSLADIALLCLRYGLQMEKVKTWFMAQRLRCGISWSSEEIEETRARVVYRRDQLHFKSLLSFTHHAGRPPEEVPPPPVPAPEQVGIGIGPPTLSKPTQTKGLKVEPEEPSQMPPLPQSHQKLKESLMTPGSGAFPYQSDFWQHLQSSGLSKEQAGRGPNQSHGIGTASWNHSTTVPQPQARDKPPPIALIASSCKEESASSVTPSSSSTSSSFQVLANGATAASKPLQPLGCVPQSVSPSEQALPPHLEPAWPQGLRHNSVPGRVGPTEYLSPDMQRQRKTKRKTKEQLAILKSFFLQCQWARREDYQKLEQITGLPRPEIIQWFGDTRYALKHGQLKWFRDNAVPGAPSFQDPAIPTPPPSTRSLNERAETPPLPIPPPPPDIQPLERYWAAHQQLRETDIPQLSQASRLSTQQVLDWFDSRLPQPAEVVVCLDEEEEEEEEELPEDDEEEEEEEEEDDDDDDDDVIIQD
B10: GAS7, O60861 (protein)
chain: MSGARCRTLYPFSGERHGQGLRFAAGELITLLQVPDGGWWEGEKEDGLRGWFPASYVQLLEKPGMVPPPPGEESQTVILPPGWQSYLSPQGRRYYVNTTTNETTWERPSSSPGIPASPGSHRSSLPPTVNGYHASGTPAHPPETAHMSVRKSTGDSQNLGSSSPSKKQSKENTITINCVTFPHPDTMPEQQLLKPTEWSYCDYFWADKKDPQGNGTVAGFELLLQKQLKGKQMQKEMSEFIRERIKIEEDYAKNLAKLSQNSLASQEEGSLGEAWAQVKKSLADEAEVHLKFSAKLHSEVEKPLMNFRENFKKDMKKCDHHIADLRKQLASRYASVEKARKALTERQRDLEMKTQQLEIKLSNKTEEDIKKARRKSTQAGDDLMRCVDLYNQAQSKWFEEMVTTTLELERLEVERVEMIRQHLCQYTQLRHETDMFNQSTVEPVDQLLRKVDPAKDRELWVREHKTGNIRPVDMEI

target: nucleoprotein N of Crimean-Congo hemorrhagic fever virus; assay: AlphaScreen luminescence signal relative to Venus negative control (fold); higher = stronger binding to CCHFV N
Procedure: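 AlphaScreen binding of cell-free made, FLAG-GST-tagged human transcription factors and regulators (crude translation products) to biotinylated N protein; signal as fold of the FLAG-GST-Venus control. One pass.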

Row | Binder | AlphaScreen luminescence signal
1 | B1 | 2.47
2 | B2 | 3.58
3 | B3 | 1.95
4 | B4 | 1.3
5 | B5 | 2.23
6 | B6 | 2.33
7 | B7 | 2.47
8 | B8 | 1.16
9 | B9 | 2.05
10 | B10 | 2.65
